The results in this text go back to a collection of fitness landscapes (doi:10.1016/j.celrep.2020.107928).

In all, about 81,000 sequences were measured (“one-hybrid fitness for binding parS DNA”: median about -0.17, highest 2% from about 0.51 on). Some of the results follow. Bounds are passed on as bounds.

To fix the notation:
B1: Caulobacter ParB omega fusion; a variant is named by its letters at X, in order, B8GW30 (parent)
chain: MESVVVGEPGMSEGRRGLGRGLSALLGEVDAAPAQAPGEQLGGSREAPIEILQRNPDQPRRTFREEDLEDLSNSIREKGVLQPILVRPSPDTAGEYQIVAGERAWRAAQRAGLKTVPIMVRELDDLAVLEIGIIENVQRADLNVLEEALSYKVLMEKFERTQENIAQTIGKSXSHVANXMRLLXLPDEVQSYLVSGELTAXHARAIAAAADPVALAKQIIEGGLSVRETEALARKAPNLSAGKSKGGRPPRVKDTDTQALESDLSSVLGLDVSIDHRGSTGTLTITYATLEQLDDLCNRLTRGI

In this test the parent is B1. In words: one-hybrid fitness for binding parS DNA (scaled: cognate 1, non-cognate 0); higher = stronger binding. Conditions: with parS DNA site. The essentials:
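Caulobacter ParB libraries with four specificity codons randomised were screened by bacterial one-hybrid selection in the E. coli USO strain, using a HIS3 reporter whose site lies 19 bp from the promoter. Selection ran for 48 hours at 37°C on M9 lacking histidine, with 0.1 mM IPTG and 5 mM 3-AT. Plasmids were Illumina-sequenced before and after selection, three replicate libraries were pooled, and variants with under 10 reads were dropped. Fitness is the log change in each variant's read ratio to wild type, rescaled against the cognate and non-cognate sites.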
In the case of YWQT, the “one-hybrid fitness for binding parS DNA” value is at most 0.2.

As to FAKY, the “one-hybrid fitness for binding parS DNA” value was at most 0.2. NIHY: the “one-hybrid fitness for binding parS DNA” value is at most 0.2. With IGLK, the “one-hybrid fitness for binding parS DNA” value is at most 0.2.

For RHFM, the “one-hybrid fitness for binding parS DNA” value is 0.202. The figure for RCTY is 0.494; for QSCF it is at most 0.2; for QFPN it is at most 0.2.

For the variant QQAI, the “one-hybrid fitness for binding parS DNA” value was at most 0.2. On to LQAT, for which the “one-hybrid fitness for binding parS DNA” value is at most 0.2. Consider HSQS, for which the “one-hybrid fitness for binding parS DNA” value is at most 0.2. Then NSYH, with at most 0.2. As for SRRI, the “one-hybrid fitness for binding parS DNA” value was at most 0.2. Consider TAVH, for which the “one-hybrid fitness for binding parS DNA” value was at most 0.2. Regarding YETR, the “one-hybrid fitness for binding parS DNA” value is at most 0.2. Take RVCL: the “one-hybrid fitness for binding parS DNA” value was at most 0.2. As to NKGS, the “one-hybrid fitness for binding parS DNA” value was at most 0.2. In the case of QCVV, the “one-hybrid fitness for binding parS DNA” value was at most 0.2.

For the variant HTCC, the “one-hybrid fitness for binding parS DNA” value is at most 0.2. As for FNLR, the “one-hybrid fitness for binding parS DNA” value is at most 0.2.

Take VQTC: the “one-hybrid fitness for binding parS DNA” value is at most 0.2. Take GDVC: the “one-hybrid fitness for binding parS DNA” value is at most 0.2.

As to MHTH, the “one-hybrid fitness for binding parS DNA” value is at most 0.2.

TTRD: the “one-hybrid fitness for binding parS DNA” value was at most 0.2.

Take RFVD: the “one-hybrid fitness for binding parS DNA” value was at most 0.2. Take RHRA: the “one-hybrid fitness for binding parS DNA” value was determined as 0.58.

Turning to EVPT, the “one-hybrid fitness for binding parS DNA” value was at most 0.2. VLVV: the “one-hybrid fitness for binding parS DNA” value was at most 0.2.

In the case of TFIW, the “one-hybrid fitness for binding parS DNA” value was at most 0.2. Consider SPSC, for which the “one-hybrid fitness for binding parS DNA” value was at most 0.2. Then QCQF, with at most 0.2.

LHYT: the “one-hybrid fitness for binding parS DNA” value is at most 0.2. The figure for GQTK is at most 0.2.

Take RHWC: the “one-hybrid fitness for binding parS DNA” value stood at 0.759. Then SLQC, with at most 0.2. The figure for NWGC is at most 0.2. The figure for KPCG is at most 0.2; for RKNP it is at most 0.2. As for ENFG, the “one-hybrid fitness for binding parS DNA” value is at most 0.2. Then IHMG, with at most 0.2; and WVVR, with at most 0.2.

Consider PLAW, for which the “one-hybrid fitness for binding parS DNA” value was at most 0.2. As for PLDW, the “one-hybrid fitness for binding parS DNA” value was at most 0.2. In the case of ELCC, the “one-hybrid fitness for binding parS DNA” value is at most 0.2.

As to RRLE, the “one-hybrid fitness for binding parS DNA” value was at most 0.2.

Consider TAAF, for which the “one-hybrid fitness for binding parS DNA” value was at most 0.2. Consider TNWG, for which the “one-hybrid fitness for binding parS DNA” value is at most 0.2. Regarding THLG, the “one-hybrid fitness for binding parS DNA” value was at most 0.2. As for PGSV, the “one-hybrid fitness for binding parS DNA” value is at most 0.2. WRST: the “one-hybrid fitness for binding parS DNA” value is at most 0.2. As to HRGF, the “one-hybrid fitness for binding parS DNA” value was at most 0.2.

Regarding YYLG, the “one-hybrid fitness for binding parS DNA” value is at most 0.2. Turning to RRNW, the “one-hybrid fitness for binding parS DNA” value is at most 0.2. For the variant LTGY, the “one-hybrid fitness for binding parS DNA” value was at most 0.2. For KENR, the “one-hybrid fitness for binding parS DNA” value was at most 0.2. The figure for REGT is 0.201.

Turning to REPP, the “one-hybrid fitness for binding parS DNA” value is at most 0.2. As for SNCT, the “one-hybrid fitness for binding parS DNA” value is at most 0.2. SQTF: the “one-hybrid fitness for binding parS DNA” value was at most 0.2. In the case of LQNG, the “one-hybrid fitness for binding parS DNA” value is at most 0.2. Turning to INSC, the “one-hybrid fitness for binding parS DNA” value was at most 0.2. In the case of LVDR, the “one-hybrid fitness for binding parS DNA” value is at most 0.2. For the variant HPHM, the “one-hybrid fitness for binding parS DNA” value is at most 0.2. The figure for LIGT is at most 0.2. As to QWIA, the “one-hybrid fitness for binding parS DNA” value was at most 0.2.

In the case of NQES, the “one-hybrid fitness for binding parS DNA” value is at most 0.2. Regarding DTSI, the “one-hybrid fitness for binding parS DNA” value was at most 0.2. As to HCLM, the “one-hybrid fitness for binding parS DNA” value is at most 0.2.

For QCVW, the “one-hybrid fitness for binding parS DNA” value was at most 0.2.

Take VEQT: the “one-hybrid fitness for binding parS DNA” value was at most 0.2.

Take PKVT: the “one-hybrid fitness for binding parS DNA” value is at most 0.2. The figure for ESCT is at most 0.2; for WFCG it is at most 0.2; for LQHM it is at most 0.2. For YILR, the “one-hybrid fitness for binding parS DNA” value was at most 0.2. Then LFGC, with at most 0.2; and WGNT, with at most 0.2.

Turning to QADD, the “one-hybrid fitness for binding parS DNA” value is at most 0.2. The figure for VQHA is at most 0.2. Then THKY, with at most 0.2; and KAQD, with at most 0.2. Regarding TMMR, the “one-hybrid fitness for binding parS DNA” value was at most 0.2. On to TWAG, for which the “one-hybrid fitness for binding parS DNA” value was at most 0.2. Consider SAMV, for which the “one-hybrid fitness for binding parS DNA” value was at most 0.2. In the case of SRYC, the “one-hybrid fitness for binding parS DNA” value is at most 0.2. Take LGSK: the “one-hybrid fitness for binding parS DNA” value is at most 0.2. On to SESE, for which the “one-hybrid fitness for binding parS DNA” value was at most 0.2. Consider VAAT, for which the “one-hybrid fitness for binding parS DNA” value was at most 0.2. On to SMKR, for which the “one-hybrid fitness for binding parS DNA” value is at most 0.2. As to YKPL, the “one-hybrid fitness for binding parS DNA” value was at most 0.2.

With LVAW, the “one-hybrid fitness for binding parS DNA” value is at most 0.2. As to WTLC, the “one-hybrid fitness for binding parS DNA” value was at most 0.2.

As to RIPH, the “one-hybrid fitness for binding parS DNA” value was at most 0.2. On to LCYC, for which the “one-hybrid fitness for binding parS DNA” value is at most 0.2.

Take SAYD: the “one-hybrid fitness for binding parS DNA” value is at most 0.2.

Regarding SGYV, the “one-hybrid fitness for binding parS DNA” value is at most 0.2. With PPKC, the “one-hybrid fitness for binding parS DNA” value was at most 0.2.
